Source: ChEMBL document CHEMBL4888484, “Replenishing the malaria drug discovery pipeline: Screening and hit evaluation of the MMV Hit Generation Library 1 (HGL1) against asexual blood stage Plasmodium falciparum ,using a nano luciferase reporter read-out” (2022)
Hit rate of the full screen: of about 150,000 compounds, about 540 (0.36%) showed an effect of 50% or more. Some of the results follow.

These compounds were tested on Plasmodium falciparum (assay: Primary screen in NF54 nanoGlo assay, in single point, at 2uM, 72h; a lower Z score goes with more inhibition). Conditions: timepoint 72 hour.
Type: functional, Erythrocyte
`Cc1cccc2c(N3CCC[C@H]3c3nncn3CC(C)C)ncnc12` was tested, and the “% Inhibition” value was -3% and the Z score was 0.29.
With `Cc1nc(COC2CCN(C(=O)[C@H]3CCC(=O)N3)C2)cs1` (stereo partly drawn) the “% Inhibition” value was -8% and the Z score was 1.15.
For `O=C1CC(CC(=O)N2CC3CCC2C3)(c2ccccc2)C(=O)N1CCCOc1cccnc1` (stereo not drawn), the “% Inhibition” value was 11% and the Z score was -1.5.
In the case of `CCCn1cnnc1CN(C)C(=O)N[C@H]1CCN(C)C[C@H]1Cc1ccccc1`, the “% Inhibition” value is reported as -4% and the Z score is reported as 0.8.
`C[C@@H](C(=O)Nc1ccc(Cl)cn1)N1CCNC(=O)C1` was tested, and the “% Inhibition” value was -10% and the Z score was 0.87.
With `CCOC(=O)NC1CCN([C@@H](C)C(=O)NC(C)(C)CC)CC1` the “% Inhibition” value was 6% and the Z score was -0.72.
In the case of `CN(C[C@@H]1CC=CCC1)C(=O)c1cnnn1C`, the “% Inhibition” value is reported as 2% and the Z score is reported as -0.27.
In the case of `CCc1nc(C#N)cc(N2CCOC[C@@H]2Cc2ccccc2)n1`, the “% Inhibition” value is reported as -14% and the Z score is reported as 1.14.
In the case of `Cn1nnc2cc(CN3CCO[C@@]4(CCCOC4)C3)ccc21`, the “% Inhibition” value is reported as -6% and the Z score is reported as 1.1.
For `O=C(c1cccc(Cl)c1)[C@H]1CCCN(C(=O)CN2CCOCC2)C1`, the “% Inhibition” value was -5% and the Z score was 0.89.
`Cc1nc(CC#N)sc1C(=O)OC(C)(C)C` was tested, and the “% Inhibition” value was 2% and the Z score was -0.25.
`Oc1c(Cl)c(Nc2ccccc2)c(O)n1-c1ccccc1` was tested, and the “% Inhibition” value was 27% and the Z score was -3.59.
In the case of `Cn1ccnc1[C@@H]1c2nc[nH]c2CCN1Cc1cn(CC(N)=O)c2ccccc12`, the “% Inhibition” value is reported as -3% and the Z score is reported as 0.37.
`CN1CCC(N(c2ccccc2)S(=O)(=O)c2ccc(C(C)(C)C)s2)CC1` was tested, and the “% Inhibition” value was -1% and the Z score was 0.07.
In the case of `Cc1nn(C(C)(C)C)cc1C(C)NC(=O)N(C)CC1CCCC1O` (stereo not drawn), the “% Inhibition” value is reported as -10% and the Z score is reported as 1.74.
With `Clc1ccccc1CCn1ccnc1[C@@H]1CCCCO1` the “% Inhibition” value was -8% and the Z score was 1.15.
In the case of `OC1(C(F)(F)F)CCN(Cc2c[nH]nc2-c2cccnc2)CC1`, the “% Inhibition” value is reported as -18% and the Z score is reported as 1.54.
In the case of `CCc1ccc([C@@H]2CN(C(=O)Nc3ccc4[nH]ccc4c3)CCO2)cc1`, the “% Inhibition” value is reported as 4% and the Z score is reported as -0.53.
For `COc1ccc(OC)c(-c2cc(C(=O)N3CC[C@H](N4C(=O)COC4=O)C3)n(C)n2)c1`, the “% Inhibition” value was -9% and the Z score was 1.05.
`CC(C)c1ccn(C2(C(=O)O)CCN(c3nccc4occc34)CC2)n1` was tested, and the “% Inhibition” value was -11% and the Z score was 1.84.
`COc1cccc(Cn2cnc(C)c(C)c2=O)c1Cl` was tested, and the “% Inhibition” value was 6% and the Z score was -0.74.
`CCCOC1(CNC(=O)[C@@H]2CCCN2C(=O)c2ccccn2)CCCCC1` was tested, and the “% Inhibition” value was -11% and the Z score was 1.45.
For `CNCC=CCOc1ccc(C)c(C)c1`, the “% Inhibition” value was 2% and the Z score was -0.28.
In the case of `CN(C)c1nc(-c2ccccc2CN2CCOCC2)ncc1F`, the “% Inhibition” value is reported as -8% and the Z score is reported as 1.53.
With `Cn1ccc(C(=O)N2CCC[C@H](c3cc(F)ccc3F)C2)cc1=O` the “% Inhibition” value was 1% and the Z score was -0.16.
In the case of `c1ccc(C[C@H](NCCc2ccc3c(c2)OCO3)C2CC2)nc1`, the “% Inhibition” value is reported as -5% and the Z score is reported as 0.64.
For `Cc1nc([C@@H]2CCCN2Cc2nnn(C)n2)cs1`, the “% Inhibition” value was -7% and the Z score was 1.27.
`CS(=O)(=O)N1C[C@H]2CC[C@@H](C1)N(C(=O)Cc1ccc(F)cc1F)C2` was tested, and the “% Inhibition” value was -3% and the Z score was 0.49.
`CCC[C@H]1CN(c2nc3ccccc3n2CCO)C[C@@H]1N` was tested, and the “% Inhibition” value was -1% and the Z score was 0.11.
`C[C@]1(O)CCN(Cc2ccc3c(c2)OCCO3)C[C@H]1Cc1ccccc1` was tested, and the “% Inhibition” value was -5% and the Z score was 0.88.
For `COc1cccc(CN(Cc2ccc(CC3CCN(C)CC3)cc2)C2CC2)c1`, the “% Inhibition” value was -7% and the Z score was 1.34.
`O=C(Nc1ccccc1-c1ccccc1)c1ccoc1` was tested, and the “% Inhibition” value was -10% and the Z score was 1.88.
For `CC(=O)N1CCn2nc(C(=O)N(C)Cc3cc(-c4cccs4)n[nH]3)cc2C1`, the “% Inhibition” value was -17% and the Z score was 2.67.
In the case of `O=C(O)c1ccc2nc(-c3ccc4c(c3)CCC4)[nH]c2c1`, the “% Inhibition” value is reported as -5% and the Z score is reported as 0.75.
With `CCS(=O)(=O)N1CCCC[C@H](NC(=O)c2ccc(-n3cnnn3)cc2O)C1` the “% Inhibition” value was -11% and the Z score was 1.62.
`CCCn1cc(-c2c[nH]c([C@H]3CC(=O)N(CC(C)C)C3)n2)c(C)n1` was tested, and the “% Inhibition” value was 1% and the Z score was -0.2.
For `COc1ncccc1NC(=O)N(C)[C@@H](C)c1ccc(C)s1`, the “% Inhibition” value was 2% and the Z score was -0.21.
`CC(=O)c1cccc(-n2ccnc2-c2ccc(Cn3cccn3)cc2)c1` was tested, and the “% Inhibition” value was -8% and the Z score was 1.13.
With `Cc1nc(C(C)C)sc1C(=O)N1CCCn2nc(C#N)cc2C1` the “% Inhibition” value was -3% and the Z score was 0.53.
For `Cc1cc(Br)c2c(c1)CN(C(=O)[C@H](CO)NC(N)=O)CC2`, the “% Inhibition” value was 14% and the Z score was -1.81.
`O=C(CCc1ccccc1)N1C[C@@H](C(=O)N2CCCC2)[C@H](c2cccnc2)C1` was tested, and the “% Inhibition” value was 4% and the Z score was -0.41.
For `O=S(=O)(Nc1ccc(N2CCN(Cc3ccccc3Cl)CC2)nc1)c1ccc(F)cc1`, the “% Inhibition” value was -3% and the Z score was 0.41.
In the case of `COc1ccc(CN2C(=O)[C@@H]3C(CC(N)=O)NC4(C(=O)Nc5c4ccc(Cl)c5C)[C@@H]3C2=O)cc1` (stereo partly drawn), the “% Inhibition” value is reported as -3% and the Z score is reported as 0.36.
`CC1(C)CN(C(=O)CCc2cccnc2)CCN1Cc1ccccc1` was tested, and the “% Inhibition” value was 0% and the Z score was 0.06.
For `O=C1CCN(c2nc(-c3ccccc3)nc3c2CCNC3)CCN1`, the “% Inhibition” value was -9% and the Z score was 1.8.
With `Cc1nc(NC(=O)Nc2cc(C3CC3C)n[nH]2)ccc1Br` (stereo not drawn) the “% Inhibition” value was 7% and the Z score was -1.2.
With `CCc1nccn1CCC(=O)N1CCC[C@H](C(=O)c2cccc3ccccc23)C1` the “% Inhibition” value was -6% and the Z score was 0.76.
`O=C(NCc1ccc(-c2ccoc2)nc1)NC1CCCC1` was tested, and the “% Inhibition” value was 8% and the Z score was -1.04.
For `Cc1cccc(C)c1Cn1nc(CO)c(=O)cc1C`, the “% Inhibition” value was -7% and the Z score was 0.85.
`C[C@@H](c1nnnn1C1CC1)S(=O)(=O)c1ccc(Cl)c(Cl)c1` was tested, and the “% Inhibition” value was -1% and the Z score was 0.09.
With `Cc1nc(CN(C)CC2(CO)CCC2)n(C)c1C` the “% Inhibition” value was -1% and the Z score was 0.28.
With `COC(=O)c1ccccc1N(C(=O)c1ccnn1C)C1CCC1` the “% Inhibition” value was 11% and the Z score was -1.01.
`O=C(Nc1cccc(OC(F)F)c1)c1ccc(-n2cncn2)nn1` was tested, and the “% Inhibition” value was -7% and the Z score was 1.25.
With `C[C@H]1CN(CCn2cnc3ccccc3c2=O)CCN(C2CCC2)C1` the “% Inhibition” value was -8% and the Z score was 0.87.
`O=C(Nc1ccc2c(c1)OCCO2)N[C@@H]1C=CCCC1` was tested, and the “% Inhibition” value was -25% and the Z score was 3.58.
For `Oc1cc(-c2ccc(Cl)cn2)cc2c1OCCN(CCn1cncn1)C2`, the “% Inhibition” value was -6% and the Z score was 1.24.
With `Cc1ccc(S(=O)(=O)N2CCN(C(=O)c3ccc4[nH]cnc4c3)CC2)cc1` the “% Inhibition” value was -19% and the Z score was 3.67.
For `CN1CC(C(=O)N2CCC(c3ccccc3Cl)S(=O)(=O)CC2)CC1=O` (stereo not drawn), the “% Inhibition” value was 8% and the Z score was -1.32.
`C[C@H](OC(=O)CCc1ccccc1)C(=O)N1CC(=O)Nc2ccccc21` was tested, and the “% Inhibition” value was -8% and the Z score was 1.03.
`COc1ccc(-c2cccc(-c3ccn(CCO)n3)c2)c(C)c1` was tested, and the “% Inhibition” value was -6% and the Z score was 0.82.
`Cc1cccc2[nH]cc(CCC(=O)NC[C@H]3CCCN3CCCO)c12` was tested, and the “% Inhibition” value was -17% and the Z score was 3.36.
For `Cc1ccc(CNC(=O)Cn2nc(C)c3sc(C(C)C)nc3c2=O)o1`, the “% Inhibition” value was -15% and the Z score was 2.07.
For `CC(C)n1ncc(C(=O)NC(C)(C)CN(C)Cc2ccccc2)c1N`, the “% Inhibition” value was -12% and the Z score was 2.14.
For `CCn1nc(C)c(C(=O)N2CC(N3CCNC3=O)C2)c1C`, the “% Inhibition” value was -2% and the Z score was 0.29.
`O=C(Cc1ccccc1)N(Cc1ccccc1)Cc1nc2cc(Cl)ccc2o1` was tested, and the “% Inhibition” value was -12% and the Z score was 1.17.
In the case of `CCNc1nc(C)c(C(=O)N[C@@H](C)Cn2cccn2)s1`, the “% Inhibition” value is reported as -11% and the Z score is reported as 1.46.
For `O=C(c1cncc(F)c1)N1CCc2ncnc(N3CC[C@@H](O)C3)c2CC1`, the “% Inhibition” value was -1% and the Z score was 0.09.
`CC(C)NC(=O)N1CCC(c2nc(CCNC(=O)C3CCC3)cs2)CC1` was tested, and the “% Inhibition” value was 7% and the Z score was -0.88.
In the case of `Cc1cc(N(CN2CCCC2=O)C(=O)c2ccccc2)no1`, the “% Inhibition” value is reported as 2% and the Z score is reported as -0.21.
With `CN1C(=O)[C@@H]2CC[C@H]1CN(C(=O)c1ccccc1Oc1ccccc1)C2` the “% Inhibition” value was 5% and the Z score was -1.01.
With `Cc1nnc([C@H]2CCCN(S(=O)(=O)c3ccc(C(C)(C)C)cc3)C2)s1` the “% Inhibition” value was -9% and the Z score was 1.27.
With `C[C@H]1CCCN(c2nc(Nc3ccc(F)cc3)c3nn[nH]c3n2)C1` the “% Inhibition” value was -17% and the Z score was 2.57.
`COC(=O)[C@@H]1C[C@H](O)CCN1C(=O)c1cccc2ccccc12` was tested, and the “% Inhibition” value was -12% and the Z score was 2.16.
For `Cc1nc(Cn2nccn2)n(C2CCCCC2)n1`, the “% Inhibition” value was -4% and the Z score was 0.77.
`CCc1ccc(CN(C)c2cc([C@H]3CCOC3)nc(C)n2)nc1` was tested, and the “% Inhibition” value was -9% and the Z score was 0.93.
With `CCOC(=O)[C@H]1CCCN(C(=O)Cn2c(Cc3ccc(Cl)cc3Cl)nc3ccccc32)C1` the “% Inhibition” value was -7% and the Z score was 1.19.
`Cn1cnc(CNc2c(Br)cccc2S(C)(=O)=O)n1` was tested, and the “% Inhibition” value was -7% and the Z score was 1.27.
For `Cc1cc(C)n(CC(=O)N2CCC3(CC2)NCCc2c3[nH]c3ccccc23)n1`, the “% Inhibition” value was -14% and the Z score was 1.82.
With `N[C@H]1CCN(Cc2cccc(OCc3c(F)cccc3Cl)c2)C[C@@H]1O` the “% Inhibition” value was 2% and the Z score was -0.21.
`COc1cc(CNCc2ccc(C(=O)O)cc2)ccc1OCc1ccc(C)cc1` was tested, and the “% Inhibition” value was 3% and the Z score was -0.39.
With `CCN(CC)Cc1cnc2c(C(=O)N3CCC[C@H](OC)C3)cnn2c1` the “% Inhibition” value was -16% and the Z score was 1.93.
With `CCN(CC)c1ccc(NC(=O)CCC(=O)N2CCCN(c3nc4cccnc4s3)CC2)c(C)c1` the “% Inhibition” value was -12% and the Z score was 1.18.
In the case of `CCCCn1nnnc1CN(CC)c1ccccc1C`, the “% Inhibition” value is reported as -13% and the Z score is reported as 1.72.
`c1ccc(Cc2noc(CN3CC[C@H](CN4CCCCC4)C3)n2)cc1` was tested, and the “% Inhibition” value was -13% and the Z score was 1.39.
